Laboratory results as given in the RNAGym collection of RNA variant scans (doi:10.7554/elife.90254).
The source gives no read counts; variants with many changes may rest on few reads.

B1: LINE1-mini (parent)
chain: GGCAGAGCUCAACACAGCGUGGCAAAGUGGCUGUGGCUAGACUGCC

Variants of: B1
Experiment: self-cleavage, relative activity (ratio to wild type); higher = more cleavage; in vitro, sequencing; the parent is a self-cleaving ribozyme

| Variant | self-cleavage |
| --- | --- |
| C3A A11C C18U | 0.04 |
| C3A C8A C10A A14C A16C G33U C46G | 0.03 |
| C3A C18G U43A | 0.05 |
| C3A C8G C13A G36C U43G | 0.09 |
| C3A A4G G5A | 0.27 |
| C3A A11U A12C A14C A16U G22A A39C | 0.01 |
| C3A A11U A39C G44A | 0.02 |
| C3A A4G C10A U32C | 0.04 |
| C3A C10A G22A G30C | 0.02 |
| C3A A14G G29U | 0.47 |
| C3A C18G G33A C42U | 0.05 |
| C3A C8A G17U | 0.61 |
| C3A C8A A14C U28A | 0.06 |
| C3A A16U C45A | 0.03 |
| C3A A11G C13G | 0.03 |
| C3A A4U G5U A12G G17A A25G A26C | 0.02 |
| C3A A6U G35C | 0.36 |
| C3A C18U C46A | 0.07 |
| C3A C15A G17C U34A A41U | 0.05 |
| C3A C13G A16U C45A | 0.17 |
| C3A A4U C15G C46A | 0.12 |
| C3A C13U A14C G22A | 2.09 |
| C3A C10U C18G G29C G40U | 0.09 |
| C3A C18G G40U | 0.19 |

| Variant | self-cleavage |
| --- | --- |
| C3A A6C U38C | 0.22 |
| C3A A12U G22C A39G | 0.41 |
| C3A A12G A24C G44U | 0.07 |
| C3A C8U C10U C13G | 0.09 |
| C3A A14U G22U | 0.85 |
| C3A C13U G29C C31U C37U | 0.87 |
| C3A C15A C31A | 0.35 |
| C3A C23A G35C | 1.75 |
| C3A A4U G17A G22A | 0.05 |
| C3A A11C A16C U38G | 0.03 |
| C3A C10U U32G G33A | 0.07 |
| C3A C10A C18A C23G G35C | 0.03 |
| C3A A16G G22C C31U G40U | 0.03 |
| C3A C8A A25C | 0.36 |
| C3A A16C C18A | 0.13 |
| C3A A14C G29U | 0.06 |
| C3A A25U G40U | 0.08 |
| C3A A6U G19A C23U A25G | 0.58 |
| C3A C15G U34A | 0.01 |
| C3A A6U U20A G22C | 0.31 |
| C3A C10A G35U | 0.08 |
| C3A C10U A24U | 0.11 |
| C3A A4G C8G G36U A39G | 0.01 |
| C3A A4G C13U | 0.46 |

| Variant | self-cleavage |
| --- | --- |
| C3A A4C G36U | 0.08 |
| C3A C8G U9C G21A | 0.07 |
| C3A C13G U20C | 0.05 |
| C3A C13G U20A | 0.3 |
| C3A A12U A14G A25U A26G G30U | 0.15 |
| C3A A6G C31U A39G | 0.11 |
| C3A A12U C18A | 0.62 |
| C3A C8A G17A C23A C31A U34C A41C | 0.14 |
| C3A A11C C13G G33U G44A | 0.03 |
| C3A A16C U32G U38C | 0.08 |
| C3A C8A A25U U43C | 0.95 |
| C3A A12U C18A G27C C37A | 0.08 |
| C3A C10G G40C | 0.03 |
| C3A C8G C18U A24U A25G | 0.28 |
| C3A A4G G7U C13U U28A G36C | 1.21 |
| C3A A11G C13A G33U U38A | 0.02 |
| C3A C10U U28A C31U C45G | 0.07 |
| C3A C18A G40C | 0.03 |
| C3A C8A G17C G22A C31U | 0.32 |
| C3A A6G G29A C31U | 0.14 |
| C3A C13G G17C G29C G33C G40C | 0.31 |
| C3A A4C U9A G33A | 0.21 |
| C3A A12C G22U C45U | 0.15 |
| C3A A12C A24U U28A A41G G44A | 0.03 |

| Variant | self-cleavage |
| --- | --- |
| C3A A6U G29A | 0.17 |
| C3A C8A G35U U38G A39G C45U | 1.19 |
| C3A A6G A14G | 0.22 |
| C3A C18A C31G G36U U38G C42A | 0.01 |
| C3A A12U A14C U20G | 0.07 |
| C3A C10U G22U G33A C37G | 0.05 |
| C3A A12U C15A G22U G27A | 0.25 |
| C3A C10A A26C | 0.04 |
| C3A C15U C18A U20A | 0.11 |
| C3A C8A G36A | 1.9 |
| C3A A4G A16C | 0 |
| C3A C8U G19C A24C | 0.14 |
| C3A C8A C15A G40U | 0.59 |
| C3A C18A C46G | 0.18 |
| C3A C23A G30A U32A A39C | 0.04 |
| C3A C15U G17A G22A C23G C46U | 0.1 |
| C3A C10G A14C | 0.03 |
| C3A C10A C45A | 0.02 |
| C3A C10U A41G | 0.03 |
| C3A A14U C15U G21U A25G G29U G35U C42A | 0.06 |
| C3A A11C C42G | 0.03 |
| C3A A6G C23G C37U | 0.04 |
| C3A A14G C18U G21A A41U | 0.12 |
| C3A C13G U20A G21U G22U G36A | 0.67 |

| Variant | self-cleavage |
| --- | --- |
| C3A C8G A12G A16U G19C G27C | 0 |
| C3A C13U A16C G27U U32A | 0.31 |
| C3A A6G A14U C15U G35U | 0.22 |
| C3A C18G C31A U38C | 0.04 |
| C3A C8G G36U | 0.25 |
| C3A C8G G36C | 0.18 |
| C3A A6U G7A A39C | 0.45 |
| C3A C10A G40A C46A | 0.02 |
| C3A C15U A26G C31U U34C | 0.24 |
| C3A C10A C15G | 0.08 |
| C3A A4G U9A A14U A26U U34C A41U | 0.2 |
| C3A C15G C37G G44U | 0.01 |
| C3A A11G C13G U34C | 0.02 |
| C3A A4U G7U G19A C23U G29U | 0.04 |
| C3A C10U A14G | 0.1 |
| C3A C10A C15A G22U | 0.07 |
| C3A A12G C31A G33U | 0.19 |
| C3A A24G G27U U32G | 0.1 |
| C3A C10G U20A G36U A39U | 0.02 |
| C3A A4C G27C U32G G44C | 0.32 |
| C3A C13U U34G C37U | 0.13 |
| C3A A26U U38A | 0.43 |
| C3A C15A A25G | 0.16 |
| C3A C8A G33U G40C | 0.43 |

| Variant | self-cleavage |
| --- | --- |
| C3A A24G C45U | 0.26 |
| C3A A4U C18A | 0.1 |
| C3A C10G G40A C42G | 0 |
| C3A A14G C31A G33U | 0.08 |
| C3A C8U C15U | 0.36 |
| C3A A4G U32C G33U | 0.08 |
| C3A C8U A11C G22A A24G U32C G33C G36C | 0 |
| C3A A12G C23U U32G | 0.02 |
| C3A A11G G19U U28G | 0.03 |
| C3A C15A C23U U28C U43C | 0.04 |
| C3A A6U A14G G22U C23G | 0.11 |
| C3A A11C G33A C45G | 0.03 |
| C3A C10A A26C G30C G35A G36U | 0.03 |
| C3A C8A U32G | 0.15 |
| C3A A14G G35A C45U | 0.02 |
| C3A C10U A25G C31A | 0.04 |
| C3A C10A G33A C46A | 0.04 |
| C3A C10U G27A U32A | 0.1 |
| C3A A16G A25G | 0.07 |
| C3A A16G A25U | 0.72 |
| C3A C23U C37U U43A C45U | 0.15 |
| C3A C8U C10A A14C G44A | 0.04 |
| C3A C13U C15U | 0.24 |
| C3A A6G U9C C10U C18G C45G | 0.01 |

| Variant | self-cleavage |
| --- | --- |
| C3A C13U C15A G19C G35C G40C G44A | 0.16 |
| C3A A6U G7C C46A | 0.07 |
| C3A A4U A16G | 0.04 |
| C3A C18G G21A A25U C45U | 0.16 |
| C3A C23G G35A | 0.1 |
| C3A C10A U28C | 0.07 |
| C3A A6G G33C | 0.03 |
| C3A C23U C42U | 0.18 |
| C3A A4C G7U U43A | 0.24 |
| C3A A14U G44A | 0.22 |
| C3A C10G A14G G21U A24C A41U | 0.03 |
| C3A A6C U20C A24G | 0.07 |
| C3A C10G A16G C18U A24C | 0.04 |
| C3A C10A G30U C31A | 0.01 |
| C3A A6C G33U G40A | 0.04 |
| C3A A16U G21A A39U | 0.01 |
| C3A A26U U28G U38G C42U | 0.02 |
| C3A C10A C37A | 0.01 |
| C3A A11G C31U C42G | 0.02 |
| C3A A4G G44C | 0.13 |
| C3A C10A C15A G17A G30U | 0.08 |
| C3A C18G G33U | 0.2 |
| C3A C8G C13A G21U | 0.07 |
